Literature values as cited in publication PMC11323271 (Journal of Chemical Information and Modeling, 2024).

Assays:
Settings in all cases: cited from earlier work
M. tuberculosis H37Rv = test system: M. tuberculosis H37Rv
M. tuberculosis [1] = test system: M. tuberculosis
M. tuberculosis [2] = test system: M. tuberculosis; remark: listed apart in the source

Row | SMILES | IC50, growth inhibitory activity in words (M. tuberculosis H37Rv) | other results
1 | CCN(CC)CC(O)Cn1c2ccccc2c2ccccc21 (stereo not drawn) [AE-641/05526042] | Inactive | 
2 | OC(CN1CCOCC1)Cn1c2ccccc2c2ccccc21 (stereo not drawn) [AE-641/05526043] | Inactive | 
3 | CCCN(CCC)CC(O)Cn1c2ccccc2c2ccccc21 (stereo not drawn) [AG-205/06683048] | Inactive | 
4 | OC(CN1CCCCC1)Cn1c2ccccc2c2ccccc21 (stereo not drawn) [AG-205/06683053] |  | IC50, growth inhibitory activity in words (M. tuberculosis [1]): Inactive
5 | Cc1ccc2c(c1)c(-c1ccccc1)c(-c1ccccc1)n2CC(O)CN1CCN(CCO)CC1 (stereo not drawn) [AP-124/41376194] |  | IC50, M. tuberculosis growth inhibitory activity (M. tuberculosis H37Rv): 1.84 µg/mL (≈ 3.92 µM)
6 | CO[C@H]1[C@H](OC(=O)c2ccc(C)[nH]2)[C@H](O)[C@@H](Oc2ccc3c(O)c(NC(=O)c4c[nH]c(C(=O)Nc5c(O)c6ccc(O[C@H]7OC(C)(C)[C@@H](OC)[C@H](OC(=O)c8ccc(C)[nH]8)[C@@H]7O)c(C)c6oc5=O)c4C)c(=O)oc3c2C)OC1(C)C [coumermycin A1] |  | MIC, M. tuberculosis growth inhibition (M. tuberculosis [2]): 2.5 µg/mL (≈ 2.25 µM)

Converted amounts (≈) assume the structure as drawn.
